Data on 56 variants can be found in the RNAGym collection of RNA variant scans (doi:10.7554/elife.90254).

Read counts are not given, so values of variants with three or more changes are uncertain.

To fix the notation:
B1: LINE1-mini (parent)
chain: GGCAGAGCUCAACACAGCGUGGCAAAGUGGCUGUGGCUAGACUGCC

The series covers variants of B1. Put plainly: self-cleavage, relative activity (ratio to wild type); higher = more cleavage; in vitro, sequencing; the parent is a self-cleaving ribozyme.
With GGCAGAGCUCAACCCAGCCUGGCAAAGUGUCUGUGGCUAGACUGCC, the self-cleavage is 0.03.
Regarding GGCAGAGCUCAACCCAGCGUGGCAACGUGCCUGUGGCUAGACUGCC, the self-cleavage came to 0.18.
With GGCAGAGCUCAACCCAGCGUGGAAAAGUGGCUGUGGUUAGAAUGCC, the self-cleavage was found to be 0.02.
In the case of GGCAGAGCUCAACCCAGCGUGGCAAAGUGGCUGUGGAUAGACUGCA, the self-cleavage was found to be 0.26.
Turning to GGCAGAGCUCAACCCCGCGUGGCAAAGUGGCUGUGGAUAGACUGCC, the self-cleavage came to 0.03.
As to GGCAGAGCUCAACCCAGCCUGGCUAAGUGGCUGUGGCUAGACUGCC, the self-cleavage amounted to 0.04.
On to GGCAGAGCUCAACCCCGCGUGGCACAGUGGCUGUGGCUCGACUGCC, for which the self-cleavage amounted to 0.07.
For GGCAGAGCUCAACCCAUCGUUGCAAACUGGCUGUGGCUGGACUGCC the value was 0.09; for GGCAGAGCUCAACCCAGAGUGGGAAAAUGGCUGUUGCUAGACUGCA, 0.04.
As to GGCAGAGCUCAACCCACCGUGGAACAGUGGCUGUGACUAGACUUGC, the self-cleavage was 0.
GGCAGAGCUCAACCCAGGGUGGCAAAGCGGCUAUGGCUAGACUGCC: the self-cleavage was determined as 0.01.
For GGCAGAGCUCAACCUAGCGUGGCAAAGUGGCUGUGGCUAUACUGCC the value was 0.03; for GGCAGAGCUCAACCCAGCGUGGCUAAUUGGCUGUGGCAAGACUGCC, 0.09.
Turning to GGCAGAGCUCAACCCAGCGUGGCAAAGUGGCUGUGGCUUGAUUGCA, the self-cleavage is 0.04.
Regarding GGCAGAGCUCAACCCAGUGUGGCAAAGUGACUGAGGCUGGGCUGCC, the self-cleavage is 0.
GGCAGAGCUCAACCCAGGGUGGCAAAGUGGCUGAGGCUAGACUGCC: the self-cleavage was found to be 0.03.
GGCAGAGCUCAACCGAUCGUGGCAAAGUCGCUGAGGCUAGACUGCC: the self-cleavage is 0.01.
Regarding GGCAGAGCUCAACCCAGCGUGGUAAAGUGGCUGUGGCUAGACCGCC, the self-cleavage worked out at 0.1.
For GGCAGAGCUCAACCAAGCGUGGCAAAGUGGCUGUGGCUAGAAUGCC, the self-cleavage turned out to be 0.06.
For GGCAGAGCUCAACCUAGCGUGGGAAUGUGGCUGUGGCUAAACUGCC the value was 0.03.
Take GGCAGAGCUCAACCCAGCGUGGCCAAGUGGCUGUGGCUAGAAUGCC: the self-cleavage came to 0.02.
As for GGCAGAGCUCAACCCAGUGUGGCAAAGUGGCUUUGGCUAGACCGCC, the self-cleavage amounted to 0.01.
For GGCAGAGCUCAACCCAGCGUGGCAAAGUGGUUCUGGCUAGACUGGC the value was 0.02; for GGCAGAGCUCAACCCAGCGUGGCUAAGUGGUUGUGGCUAGACCGCU, 0.02; for GGCAGAGCUCAAUACAGCGUGGCAAAGAGGCUGUGUCUAGACUCCC, 0.05.
Regarding GGCAGAGCUCAACCCAGCGUGGCAUAGUGGCUGUGUCUAAACUGCC, the self-cleavage amounted to 0.07.
Next, GGCAGAGCUCAACCCAGAGUGCCAAAGUGGCUGUGGCUAGACUGCC: 0.04; GGCAGAGCUCAACCAAGCGUGGCAAAGUCGCUGAGGCUGGACUGCC: 0.01.
For GGCAGAGCUCAACCCAUCGUGGGAAAGUGGCUGUGGCUAGACUGCC the value was 0.
GGCAGAGCUCAACCCGGCGUGGCAGAGUGGAUGUGGCUAGACUGCC: the self-cleavage was determined as 0.01.
Turning to GGCAGAGCUCAACCCAUCGUGGCAAAGUGGCUGUGGCUAGAGUGCC, the self-cleavage turned out to be 0.18.
For the variant GGCAGAGCUCAAUACAGCGUGGCAAAGGGGCGGUGGCUAGACUGCC, the self-cleavage was 0.01.
Regarding GGCAGAGCUCAACCCAGCGUGGCAAAGUGGCUGUGGUUAGACCCCA, the self-cleavage was 0.01.
In the case of GGCAGAGCUCAACCCCGCGUGGCAAAGUAGCUAUGGCUAGACUGCC, the self-cleavage amounted to 0.22.
For the variant GGCAGAGCUCAACCCAGCCUGGCAAAGUGGCUAUGGCUAGACUGCC, the self-cleavage was determined as 0.03.
Next, GGCAGAGCUCAACCCAGCCUUGCAAAGUGGCUGUGGCUAGACUGCC: 0.03; GGCAGAGCUCAACCCAGCGUGGCAAAGUGGUAGUGGAUAGACUGCC: 0.17; GGCAGAGCUCAACCCAGCAUCGCAAAGUGACGGUGGCUAGACUGCC: 0.02.
With GGCAGAGCUCAACCCAGCUUGGCAAAGUGACUGUGGCUAGACUGCC, the self-cleavage amounted to 0.05.
For the variant GGCAGAGCUCAACCGAGCGUGGCAAAGUGGCGGUGGCUAGACUGCC, the self-cleavage was 0.02.
Next, GGCAGAGCUCAACCCAGUGCGGCAAAGUGGAUGUGGCUAGACUGCC: 0.02; GGCAGAGCUCAACCCAUCGUGGCAGAGUAGCUGUGGCCAGACUGCC: 0.08.
On to GGCAGAGCUCAACCCAGAGUGGCAAAGUGGCUGUCGCUAGACUGCC, for which the self-cleavage worked out at 0.05.
Turning to GGCAGAGCUCAACCCAUAGUGGCAAAGUGGCUGUGGCUAGACUGCC, the self-cleavage was found to be 0.1.
GGCAGAGCUCAACCCAGCGUGGGAAAGUGACUGUGGCUAGACUGCC: the self-cleavage turned out to be 0.06.
With GGCAGAGCUCAACCCAGCAUGGCAAAGUGGCUGUGCCUAGACUACC, the self-cleavage turned out to be 0.03.
Regarding GGCAGAGCUCAACCCAGCAUCGCAAAGAGGCUGUGGCUAGACUGAG, the self-cleavage turned out to be 0.03.
Consider GGCAGAGCUCAACCUAGCGUGGCAAAGCGGCUGUGGAUACACUGCC, for which the self-cleavage is 0.01.
Next, GGCAGAGCUCAACCCAGCGUGGAAAAUUGGCUGUGGCUAGACUGCC: 0.1.
For GGCAGAGCUCAACCCCGCGUGGCACAGUGGCUGUGGCUAGACUGCC, the self-cleavage stood at 0.09.
Consider GGCAGAGCUCAACCUAGCGCGGCAAAGUGGCUGUGGCUAGACUGCC, for which the self-cleavage was 0.05.
Next, GGCAGAGCUCAACCCAUCGUGGCAAAGUGGGUGUGGCUAGACUUCC: 0.02.
In the case of GGCAGAGCUCAACCCGGCGUGGCAAAGUGGCGGUGGCUCGACUGCC, the self-cleavage turned out to be 0.16.
For GGCAGAGCUCAAUACAGCGUGGCAAAGUGGCAGGGGAAAGACUGCC the value was 0; for GGCAGAGCUCAACCCAUCGUGGCAAAGUGGCUGUGGCUAGACUGAC, 0.08; for GGCAGAGCUCAACCCAGCAUUGCAAAGUGGCUGUGGCUAGACUGCC, 0.07.
